Legend:
[1] = tested on: adult rat ventricular cardiomyocytes (ARVCs); experiment: Simulated IR (OGD/reoxygenation) injury in adult rat ventricular cardiomyocytes; assay type: cell-based
Description: Following standard isolation and culture protocols, ARVCs were exposed to ANXA1sp (5, 10, 30, 60 μM) for 1 h, subjected to 2 h of oxygen glucose deprivation (OGD), followed by reoxygenation for 3, 6, or 24 h (FIG. 1). A scrambled peptide and dexamethasone (DEX) were used as negative and positive controls, respectively. ARVC injury was determined at the end of reoxygenation as levels of cardiac Troponin I (cTnI) in the culture medium using high-sensitivity ELISA (Life Diagnostics), viability using cell morphology and Trypan blue exclusion, and apoptosis using a Cell Death ELISA (Roche).
ARVCs were isolated from adult (12-15 weeks old) male Sprague-Dawley (SD) rats using a commercial isolation kit (Cellutron, Cat. #AC-7031), according to the manufacturer's protocol. Briefly, male Sprague-Dawley (SD) rats (300-350 g) were anesthetized with 2% isoflurane in oxygen in a plastic box. Ice-cold WB buffer (5 ml) was injected in both ventricles using a 26-gauge needle to arrest the heart and wash out blood. The heart was then quickly removed, carefully cannulated onto the Langendorff perfusion apparatus, and retrogradely perfused with 40 ml B1 buffer at the flow rate of 5 ml/min. The heart was then perfused in a recirculating mode with 50 ml B2 buffer. After 10 min, 100 μl of SB solution was quickly added in the B2 flow through and mixed well. The heart was continually perfused for 10 min. Additional 100 μl SB was added in the B2-SB flow through and continued to perfuse the heart for 15 min. The heart was removed from the apparatus, and the ventricles were separated below atrioventricular junction and cut into several sections in 24 ml of recirculated flow through. The ventricles were agitated in a shaking bath (37° C.) at a rate of 100 rpm for 15 min to release rod-shaped cardiomyocytes. The ventricles were slightly and gently triturated with the transfer pipette from which the tip was broken off and the sharp edges were softened by flame melting. The myocytes were filtered through nylon mesh (250 μM) and allowed to settle by gravity for 2 min. After centrifugation at 500 g for 3 min at room temperature, the cell pellet was resuspended in 10 ml of B3 buffer. After the myocytes were pelleted by gravity for 13 min in the 20 ml of 6.5% BSA in B3 buffer, the myocytes was resuspended in 12 ml of AS Medium (Cellutron Cat#: M-8033). Myocytes were plated in culture dishes pre-coated with laminin (Invitrogen Cat#: 23017-015). Two hours after plating, cells were washed with serum free AW medium (Cellutron Cat#: M-8034), and non-adhering cells were removed from the culturing system. Myocytes were incubated with AW medium in a 37° C. and 5% CO2 growth chamber overnight.
After 24 h incubation, ARVCs were pre-treated with known concentrations of ANXA1sp or scrPEP in growth medium for 1 h, and subjected to 2 h oxygen-glucose-deprivation (OGD: DMEM no glucose, 85% N2/10% H2/5% CO2) in a OGD station chamber/Anaerobic System (Farma Scientific), followed by reoxygenation with 10 μM ANXA1sp or scrPEP in growth medium for 3, 6, and 24 h in a 37° C. and 5% CO2 growth chamber, respectively.

[2] = tested on: adult rat ventricular cardiomyocytes (ARVCs); experiment: Long-term culture of ARVCs with repeat 800 μM peptide (cytotoxicity, lifespan)
[3] = tested on: Sprague-Dawley rats, cardioplegic arrest; experiment: Rat model of cardiopulmonary bypass with cardioplegic arrest (CPB/CA); assay type: in vivo
Description: Male Sprague-Dawley rats (12-15 weeks old) were randomly assigned to three groups: CA, CA+ANXA1sp, or CA+scrambled peptide. […] Heparin was administered before initiation of mildly hypothermic CPB (33° C.). A balloon catheter was placed in the ascending aorta and positioned approximately 3-4 mm proximal to the aortic valve under echocardiographic guidance, and inflated before cardioplegia was administered distal to the balloon and into the coronary vasculature. Heart function was monitored with electrocardiography (EKG) and echocardiography, and additional cardioplegia was administered as needed to maintain cardiac arrest. Acid base status, gas exchange, electrolyte, hemoglobin and glucose concentrations were measured with serial arterial blood gases (GEM Premier 3000).
All animals underwent 75 minutes of moderate hypothermic (33° C.) CPB with 45 minutes of cardiac arrest using blood cardioplegia, followed by reperfusion for 3 h, 6 h or 24 h (n=8/group and time point). Treated animals received ANXA1sp (3 mg/kg total) before (iv), during (with cardioplegia), and after CPB (iv), whereas CA animals received an equal volume of vehicle (1% DMSO in saline (FIG. 10B). At the end of the ischemic period the aortic balloon was deflated and cardioplegia was allowed to wash out of the heart. The animal was weaned off the heart-lung machine as tolerated; epinephrine, phenylephrine, and lidocaine were administered as needed to maintain appropriate perfusion and blood pressure. Animals were recovered for a period of 3, 6, or 24 hours of reperfusion (n=8/group and time point), final endpoint measurements obtained, then sacrificed via exsanguination. Immediately following sacrifice, left ventricular myocardial samples were preserved for study.
The following endpoints were assessed: plasma cTnI and heart-type fatty acid binding protein (HFABP, ELISA, Life Diagnosis); myocardial apoptosis as levels of cleaved caspase-3 (Western blot) and TUNEL assays (Roche); and echocardiographic left ventricular function. Myocardial levels of TNFα, IL-6, and myeloperoxidase (MPO) were analyzed by ELISA. SIRT3 and cytochrome c were measured in isolated mitochondria by Western blot.
Blood samples were collected from each rat at 24 h after CPB/DHCA. Samples were immediately cooled to 4° C. and centrifuged at 3,000 rpm for 10 minutes at 4° C. Serum was collected and stored at −80° C. until assay. Whole cell lysate from heart tissues was obtained according to manufacturer's instruction (Panomics) and used for measurement of pro-inflammatory cytokines IL-6, TNFα and MPO by an ELISA method (Thermo Scientific). Cellular levels of ATP were measured by ELISA (Abeam).
TUNEL assay was performed using the In Situ Cell Death Detection Kit (Roche Molecular Biochemicals) according to manufacturer's protocol. Briefly, paraffin sections of heart tissue were deparaffinized as described above. Tissue sections were incubated with terminal deoxynucleotidyl transferase (TdT) enzyme for 1.5 h at 37° C. in order to bind to exposed 3′-OH ends of DNA fragments generated in response to apoptotic signals. The reaction was terminated with stop solution and fluorescent apoptotic signal was detected using a fluorescence microscope (Zeiss LSM 510 inverted confocal). Ten fields of each tissue section were randomly chosen and a total of 50 cells per field were counted. The index of apoptosis was determined (TUNEL positive myocytes/total myocytes counted×100%) from a total of 20 fields per heart, and the assays were performed in a blinded manner.

[4] = 3 mg/kg in three doses, 45 min cardioplegic arrest, reperfusion 3, 6, 24 h

| Substance | ARVC injury, time course ([1]; 10 μM, 6 h and 24 h post hypoxia/reoxygenation) | Troponin I release from cardiomyocytes ([1]; 2 h OGD and 6 h reoxygenation, 5, 10, 30, and 60 μM) | Concentration of maximal effect on Troponin I release ([1]; 2 h OGD and 6 h reoxygenation, range 5-60 μM) [µM] | ARVC viability (% rod-shaped cardiomyocytes) ([1]; 2 h OGD, reoxygenation) | Cardiomyocyte apoptosis (Cell Death Detection ELISA) ([1]; 2 h OGD, reoxygenation) | Rod-shape survival time relative to cells treated with Ac2-26 [2] [times longer] | Rod-shape survival time relative to untreated cells [2] [times longer] | Lifespan of adult ventricular cardiomyocytes ([2]; cultured ARVCs) | Myocardial leukocyte extravasation (MPO) ([3]; 3 mg/kg) | Plasma HFABP (myonecrosis biomarker) [3, 4] | Plasma TnI (myonecrosis biomarker) [3, 4] | LV systolic function, LV-FAC ([3]; 3 mg/kg, 24 h post-reperfusion, P=0.02 vs vehicle) [%] | Myocardial apoptosis, TUNEL positive nuclei ([3]; 3 mg/kg, reperfusion 24 h) | Myocardial levels of activated caspase-3 ([3]; 3 mg/kg, reperfusion 24 h) | Cardioprotection in the rat ([3]; cardioplegic arrest, reperfusion 3 h) |
| --- | --- | --- | --- | --- | --- | --- | --- | --- | --- | --- | --- | --- | --- | --- | --- |
| Ac-Gln-Ala-Trp [ANXA1sp] | consistently reduces ARVC injury | significantly reduced Troponin I release | 10 | increased percentage of characteristic rod-shaped viable cardiomyocytes | reduced cardiomyocyte apoptosis | 5 | 10 | increases lifespan of adult ventricular cardiomyocytes | significantly reduced | significantly reduced | significantly reduced | 75±6 | significantly reduced | lower myocardial levels of activated caspase-3 | – |
| Ac-W^10Q^11A^12 [scrPEP, reference compound] | – | – | – | – | – | – | – | – | – | – | – | – | – | – | did not afford cardioprotection |
